From PubChem BioAssay (NCI) come the findings set out here.

Structures are written as SMILES. Some compounds were tested as several samples or in several runs, with calls that do not always agree.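 96-well plates, one dose, 48 hours. Percent growth reported; active if below 10.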 Some entries of the source have several records that differ or are many. Only these are listed. The source may hold further records. These are repeated runs of one drug, at the concentration stated with the values; one value stands for one run. Additions like (4×) give the number of equal values in this list.

The subject of this experiment is UACC-257 melanoma. Description: NCI-60 one-dose screen, 48 h (100 = growth as untreated, 0 = no growth, -100 = all killed). The settings on record: 0.25 µM.

In the case of `COc1cccc2c1C(=O)c1c(O)c3c(c(O)c1C2=O)C[C@@](O)(C(=O)CO)C[C@@H]3OC1CC(N)C(O)C(C)O1` (stereo not given in full), the growth entry is, setting by setting: (runs of 2006) “inactive: 28.3% and active: -21.1%”; (runs of 2007) “inactive: 30.1, 43.4 (2×), 26.9, 48.8, 49.1, 57.6, 43.9, 42.3, 52.6, 50.5, 58.8, 61.3, 64.6, 16.5, 63.3, 47.5, 40.4, 55, 37.6, 23.7, 59.6, 29.9, 69.1, 49.4, 72.6, 31.6, 43.3, 66, 55.9, 16.1, 39.3, 26.8, 52.4, 73, 65.9, 60.4, 71.3, 83.4% and active: 8.15%, 3.72%”; (runs of 2008) “inactive: 85.1, 23.6, 25.2, 52.6, 75.9, 49.5, 38.5, 54, 58.8 (2×), 77.6, 10.9, 46.9, 13.2, 60.2, 52.7, 30.6, 47.3, 15.4, 12.7, 45.9, 36.2 (2×), 54.6, 97.2, 54.8, 45.4, 32.6, 36.9, 27.2, 36.6, 29.1, 26.1, 29, 51.2, 52.9, 25.6, 26.6, 66, 41.5, 61.8, 65.4, 54.3, 51.4, 69.1, 44.4, 18.4% and active: 3.31, 3.36, 2.36, -2.34%”; (runs of 2009) “inactive: 63.1, 60.2, 53.1, 47.1, 67.7, 81.2, 84.7, 61.1, 69.3, 65.2, 80, 69.7, 61.8, 57.8, 69, 68.3, 65.9, 70.8, 68, 55.8, 50.5, 45.7, 37.2, 46.2, 35.5, 34, 23.3, 33, 41.7, 33.9, 30, 24.9, 18.1, 30.8 (2×), 29.5, 35.3, 54.9, 39.2, 40.6, 26.4, 36.5, 38.8, 38.2, 56.6, 64.9, 35.6 (2×), 47.2, 26.8, 47.3, 36.2, 46.6, 21.7, 19.1, 32.1, 47.8, 62.8, 43.4, 32.3, 30.7, 53.5, 11.9, 46.1, 39.4, 33.3, 33.5, 43.1, 46.4% and active: 3.7%, 7.02%”; (runs of 2010) “inactive: 49.8, 44.6, 43.7, 37, 31.7, 50.7, 41.1, 48.2, 34.7, 50.1, 44 (2×), 33.9 (2×), 37.2, 46.6, 34.8, 23.9, 27.5, 55.8, 26.7, 27.2, 39, 52.5, 49.7, 29.2, 36.9, 48, 46.2, 44.2, 36.2, 21.7, 28.2, 44.5, 54.2, 54, 55.7, 62, 55.9, 50.3, 47.7 (2×), 50.4, 46.9, 40.9, 42, 43.2, 28.1, 36.1, 47.4, 47.1, 33.6, 43.1, 41.9%”; (runs of 2011) “inactive: 50.4, 40.7, 48.7, 45.9, 47.5 (2×), 49.3, 41.2, 30.8, 43.2, 30.4, 61.8, 43.4, 48.6, 66.3, 59.1, 67 (2×), 61.6, 67.7, 64.5, 62.8, 57.3 (2×), 63, 63.3, 65.5, 68.7, 61.1, 54.6, 70.4, 64.6, 50.8, 46, 60.2, 34.4, 40.6, 32.4, 69.5, 45.5, 50.1, 40.5, 35.8, 48, 51.2, 42.5, 64.9, 56.6 (2×), 42.1, 55.4, 66.4, 67.2, 48.2, 47.2, 46.8%”. The growth entry is “inactive: 39.7, 33.7, 31.2, 38.5, 35.7, 34.9, 42.6, 51.4, 25.9, 15.6, 33.1, 31.5, 35.5, 31.4, 32.4, 13.7, 21.7, 40.8, 20.7, 32.3, 44.4, 45.9 (3×), 60.1, 54.8 (2×), 48.8, 46.8, 58.3, 57.3, 47.2 (2×), 55.6, 46.7, 51.8, 50.3, 61.7 (2×), 69.2, 63.1, 33.8, 17.4, 44.2, 61.8, 62.2, 52.7, 67.6, 65.2, 40.2, 41.3, 49.5, 55.8, 55.3, 45.4, 58.5, 71.4, 54, 40.7, 56.5, 42.9, 36.6% and active: 9.14%, 7.3%” (runs of 2012); “inactive: 39.7, 42.2 (2×), 52.3, 59.5, 52.9, 73.1, 47.5 (2×), 42.7, 44.5, 64.7, 50.7 (3×), 43, 72.6, 56.5, 54.3, 49.2, 62.8, 61.7, 49.5, 55.8, 57.7, 62.5, 65.1, 57.3 (2×), 71, 77.2, 82, 59.8 (2×), 55.3, 50.6, 58, 60.1, 57.2 (2×), 60, 59, 50.1 (2×), 56.2, 66.8, 61.3 (2×), 55.6, 63.2, 38, 50.8, 63.8, 41.3, 52.1, 39.9 (2×), 45.9, 43.6, 42.3, 40.7, 32.7%” (runs of 2013); “inactive: 50.3 (2×), 51.9, 54.6, 46, 43.4, 50.2, 48.2 (2×), 35.7, 43.3, 41.4, 60.5, 52.3, 47.2, 51.2, 59.2, 50.8, 49.7, 57.3, 55.5, 49.2, 45.5, 44.7, 56.8, 58.8, 55.3, 59.4, 56.1, 57.7, 58.9, 53.5, 58.4, 60.9, 57.8, 46.9, 47.1, 48.5 (2×), 47.4, 55, 42.2, 41.3, 38.3, 41.5, 39.1, 56.9, 38, 59.1, 32, 42.6, 48.3, 45, 50.1, 56.5, 55.7, 54.2, 47.6, 21.2, 40, 34.5, 37.8, 43.8, 52.2, 45.4, 34.8, 28.4, 41.6, 28.8, 39.2%” (runs of 2014); “inactive: 49.1 (2×), 40.9 (2×), 32.6 (2×), 46.9, 38.3, 40.8, 46, 39.6 (2×), 33.2, 38.8, 45.6, 34.3, 22.7, 23.2, 35.7, 29.9, 28.5, 47.3, 40.3, 47.8, 33.7, 38.7, 42.3 (2×), 29.6, 34.6, 30.8 (2×), 47.5, 24.8, 45.9, 41.1 (2×), 35.4, 40.5, 44.4, 39.9, 39.7, 34.8, 48, 50.5, 47.2, 55.9, 48.1, 55.5, 58.2, 46.4, 50.1, 52.7, 44.1, 57.9, 46.2, 53.6, 46.7%” (runs of 2015); “inactive: 51.9, 46.7, 48.8, 58.9, 50.9 (2×), 62.7 (3×), 61.7, 48, 36.6, 42, 44.4, 35 (2×), 40.7, 48.7, 47.6 (2×), 36.5, 35.4, 46.8, 43.1, 44.9, 43.4, 22.8, 37.3, 37.9, 40.2, 40.1, 47.3, 44.6, 46.6, 50.5, 52.7, 63.5 (2×), 49.1, 60, 61.2, 53.2 (2×), 57.2, 56.2, 59.2, 57.6, 59.7, 59.8, 65, 54.6 (2×), 65.2, 68, 62, 61, 51.2, 55.3, 48.5, 55.1 (2×), 61.5, 52.9, 61.4, 64.2, 70.8, 63.2, 55.9, 58.7, 56.1, 58.3, 61.1, 63, 65.1, 72.1, 62.5%” (runs of 2016); “inactive: 54.2 (2×), 53.3 (3×), 46.1, 67.3, 52.6, 46.2 (3×), 50.8, 42 (2×), 44.6, 44.1, 35.3, 49.7, 49.3 (2×), 48.2 (2×), 46.4, 42.4, 41.1, 43.6, 44 (2×), 48.6 (2×), 47.7 (2×), 47.1, 47.6, 54.6 (2×), 35.4, 52.9, 55.1, 52.4, 57.6, 57.7, 49.4, 46, 52.3, 48.1, 56.7, 43.9, 55.9, 49.5, 42.6, 51.5, 46.7, 43.3, 47.8, 54.8, 49.8 (3×), 53.1, 48.7, 43, 48.8, 38.7, 50.7, 46.9, 51.2, 52.7, 56, 45, 40.5, 56.9, 47.3, 45.2, 48.5, 50.6%” (runs of 2017). In addition, the growth entry was “inactive: 46.6, 41.9, 47.7, 42.7, 53.6, 55.5, 49.8 (2×), 48 (2×), 48.2, 43.4 (2×), 46.3, 47.5, 48.5, 55.8 (2×), 56.4 (2×), 52.1 (2×), 49.5, 52.6, 51.2, 43.8 (2×), 51.5 (2×), 43.7, 43.6, 46.9, 50.5, 44, 41.4, 52.9, 48.3, 44.1, 57.6 (2×), 50.3, 46.8, 53.1, 52.7, 44.2, 49.1, 37.5, 43.1, 23.4, 27.8%” (runs of 2018); “inactive: 37.7, 23.8, 30.8, 32.5, 29.2, 35, 27.2, 29.1, 41.3, 43.7, 33.6, 42.4 (2×), 49.8, 52.7, 47.2, 37.5, 51.6, 47.4, 47.1, 46.9, 34.5, 54.3 (2×), 57.8, 46, 34.8 (2×), 56.1, 40.8, 43.1 (2×), 40.5 (2×), 46.7, 41.7, 43.4, 48.2, 42.8 (2×), 47.3 (2×), 37.8, 49.7, 47.7, 44.7, 44.1, 40.3, 38.2%” (runs of 2019); “inactive: 31.1, 35.3, 36.5, 40.8 (2×), 43.8 (2×), 44.4, 44.3, 46.5, 42.4, 50.8, 42.5, 44.1, 54.3, 47.8, 60, 47.2, 43.9, 48.9, 53.4, 57.6, 54, 48.5%” (runs of 2020).
